Test [1] has as its system sgRNA–Cas9 complex (Tz-tagged sgRNA1). The test is described as follows: Impact of TCO-modified CRISPR suppressors on Cas9-enabled nuclease activity, linearized pBR322 plasmid. To be noted: 16 h, duplicate. It is filed as biochemical. As for the experimental part:
Upon completion of their synthesis, the TCO-modified CRISPR suppressors were assessed for their ability to control the Cas9-assisted nuclease activity of sgRNA1-(U4Tz1) and sgRNA1-(U4Tz2). […] In parallel, the same experiments were done in the presence of the TCO-modified CRISPR suppressors. The gel data were quantified and plotted as a bar graph in Fig. 7B.

Test [2] addresses sgRNA–Cas9 complex (sgRNA2 and Tz-tagged sgRNA2) (Streptococcus pyogenes serotype M1, UniProt Q99ZW2). The test is described as follows: Impact of TCO-modified CRISPR suppressors on Cas9-enabled nuclease activity, linearized eGFP-N1 plasmid. It is filed as biochemical. To be noted: 16 h, duplicate. An excerpt:
The gel data were quantified and plotted as a bar graph in Fig. 8B. […] In a control experiment, we tested the impact of TCO-modified CRISPR suppressors on the activity of the unmodified sgRNA2 (Supplementary Fig. S12). […] Inactivation of Tz-tagged sgRNAs can be best achieved using either TCO-CPP-RRWQW or TCO-CPP-RLRWR.

[3] abbreviates: suppressor added to Cas9 + sgRNA1-(U4Tz1) + linearized pBR322 plasmid.
Where [4] appears, read: suppressor added to Cas9 + sgRNA1-(U4Tz2) + linearized pBR322 plasmid.
Setting [5] is: suppressor added to Cas9 + sgRNA2-(U4Tz1) + linearized eGFP-N1 plasmid.
[6] abbreviates: suppressor added to Cas9 + sgRNA2-(U4Tz2) + linearized eGFP-N1 plasmid.

Residues, ends and D or L forms follow the SMILES beside them. *: point of attachment. X1 = O=C(COC1CC/C=C/CCC1)*

Chain of UniProt Q99ZW2 (Q99ZW2 whole entry): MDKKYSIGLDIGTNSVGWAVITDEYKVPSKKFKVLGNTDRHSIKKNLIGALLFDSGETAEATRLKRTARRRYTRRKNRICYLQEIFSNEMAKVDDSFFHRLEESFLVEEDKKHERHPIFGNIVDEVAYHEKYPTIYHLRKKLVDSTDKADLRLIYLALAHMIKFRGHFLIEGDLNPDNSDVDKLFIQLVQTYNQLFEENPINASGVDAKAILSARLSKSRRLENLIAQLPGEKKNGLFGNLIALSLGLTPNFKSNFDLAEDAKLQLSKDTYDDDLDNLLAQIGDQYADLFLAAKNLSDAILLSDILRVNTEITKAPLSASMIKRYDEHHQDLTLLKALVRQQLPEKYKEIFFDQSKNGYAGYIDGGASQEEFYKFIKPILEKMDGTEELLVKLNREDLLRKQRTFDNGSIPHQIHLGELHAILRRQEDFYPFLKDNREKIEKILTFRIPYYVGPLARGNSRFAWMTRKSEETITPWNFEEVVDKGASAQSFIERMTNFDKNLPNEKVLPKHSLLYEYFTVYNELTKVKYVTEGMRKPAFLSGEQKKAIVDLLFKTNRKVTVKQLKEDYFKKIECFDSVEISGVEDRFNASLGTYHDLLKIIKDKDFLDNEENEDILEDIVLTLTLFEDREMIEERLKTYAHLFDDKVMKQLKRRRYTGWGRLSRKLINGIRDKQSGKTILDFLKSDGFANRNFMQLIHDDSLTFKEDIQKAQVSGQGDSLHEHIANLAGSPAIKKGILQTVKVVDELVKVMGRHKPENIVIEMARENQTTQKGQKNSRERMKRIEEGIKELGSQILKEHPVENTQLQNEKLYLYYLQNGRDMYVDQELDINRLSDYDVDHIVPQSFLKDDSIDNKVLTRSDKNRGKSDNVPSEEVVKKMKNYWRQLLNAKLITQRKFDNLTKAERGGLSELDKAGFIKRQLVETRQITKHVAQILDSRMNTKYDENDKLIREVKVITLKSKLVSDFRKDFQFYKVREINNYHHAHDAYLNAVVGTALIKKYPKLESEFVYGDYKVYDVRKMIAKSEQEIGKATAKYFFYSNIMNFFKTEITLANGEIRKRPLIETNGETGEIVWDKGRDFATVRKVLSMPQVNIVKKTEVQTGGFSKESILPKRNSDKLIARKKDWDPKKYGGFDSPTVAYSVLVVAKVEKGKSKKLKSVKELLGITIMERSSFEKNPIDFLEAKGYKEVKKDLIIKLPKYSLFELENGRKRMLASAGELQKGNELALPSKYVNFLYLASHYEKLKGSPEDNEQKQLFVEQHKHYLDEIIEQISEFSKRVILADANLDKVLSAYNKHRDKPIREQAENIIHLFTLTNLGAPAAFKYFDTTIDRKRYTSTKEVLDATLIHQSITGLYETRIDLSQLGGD

On to `CC(C)C[C@H](NC(=O)[C@H](CCCNC(=N)N)NC(=O)COC1CC/C=C/CCC1)C(=O)N[C@@H](CCCNC(=N)N)C(=O)N[C@@H](Cc1c[nH]c2ccccc12)C(=O)N[C@@H](CCCNC(=N)N)C(=O)O` (some centres unmarked) [TCO-CPP-RLRWR] (X1-RLRWR-OH), for which the residual nuclease activity entry in test [1] (setting [3]) is “completely inhibited activity”; in test [1] (setting [4]) it was “completely inhibited activity”; in test [2] (setting [5]), “completely inhibited nuclease activity”; in test [2] (setting [6]) it was “completely inhibited nuclease activity”.
Turning to `N=C(N)NCCC[C@H](NC(=O)COC1CC/C=C/CCC1)C(=O)N[C@@H](CCCNC(=N)N)C(=O)N[C@@H](Cc1c[nH]c2ccccc12)C(=O)N[C@@H](CCC(N)=O)C(=O)N[C@@H](Cc1c[nH]c2ccccc12)C(=O)O` (some centres unmarked) [TCO-CPP-RRWQW] (X1-RRWQW-OH), the residual nuclease activity result in test [1] (setting [3]) is “completely inhibited activity”; in test [1] (setting [4]) it was “completely inhibited activity”; in test [2] (setting [5]) it was “completely inhibited nuclease activity”; in test [2] (setting [6]) it was 13%.

The record behind these values is publication PMC12891993, “Bio-orthogonal chemistry-based strategy to Turn-OFF CRISPR-Cas9 activity in solution and live cells” (NAR Molecular Medicine, 2026).
